Test results published in PubChem BioAssay AID588453 (National Center for Advancing Translational Sciences (NCATS), 2011).
Values joined by “and” are separate entries in the source; they are usually repeats but may differ in a detail not shown here. Equal entries are not always repeated. Screen size: about 390,000 compounds; about 4,000 (1%) were called active. The inconclusive results got no clear call from the source; some entries with a clear call stand among them for comparison. Calls come from the whole dose curve; as a rule, active = well fitted inhibition curve with a large enough effect; inconclusive = small, poorly fitted or top-dose-only effect; inactive = no such curve, though single readings can be large or run the other way. Potencies of inconclusive entries are doubtful fits and often do not repeat.

target: Thioredoxin reductase 1, cytoplasmic (Rattus norvegicus) (UniProt O89049); experiment: qHTS Assay for Inhibitors of Mammalian Selenoprotein Thioredoxin Reductase 1 (TrxR1): qHTS; details: recombinant rTrxR1, NADPH fluorescence consumption, selenite substrate; series mostly up to 114 µM; activity change, negative = inhibition: at the top concentration; note: nearly all actives have a fitted effect of over 65% in size
Chain of UniProt O89049 (O89049 whole entry, looked up): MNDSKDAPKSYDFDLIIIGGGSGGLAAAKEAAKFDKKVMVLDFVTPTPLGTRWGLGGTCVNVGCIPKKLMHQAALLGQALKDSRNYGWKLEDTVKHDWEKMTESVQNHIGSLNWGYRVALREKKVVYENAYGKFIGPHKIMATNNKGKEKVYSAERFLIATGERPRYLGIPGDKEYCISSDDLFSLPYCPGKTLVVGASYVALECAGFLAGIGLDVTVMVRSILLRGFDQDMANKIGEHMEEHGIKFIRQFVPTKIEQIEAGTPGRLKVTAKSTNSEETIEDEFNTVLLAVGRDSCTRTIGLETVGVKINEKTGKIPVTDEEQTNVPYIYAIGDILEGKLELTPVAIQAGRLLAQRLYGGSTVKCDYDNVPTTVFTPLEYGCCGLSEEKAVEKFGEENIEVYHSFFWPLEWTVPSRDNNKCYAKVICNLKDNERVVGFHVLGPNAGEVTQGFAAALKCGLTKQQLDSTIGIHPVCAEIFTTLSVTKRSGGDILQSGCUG
Excerpt: The selenoprotein thioredoxin reductase (TrxR; EC 1.8.1.9) is a FAD containing homodimeric pyridine nucleotide-disulfide oxidoreductase with many cellular roles. Together with NADPH and its prime substrate thioredoxin (Trx), the enzyme forms the core of the Trx system. The mammalian Trx system exerts a wide spectrum of functions including redox regulation, antioxidant defense, regulation of transcription factors as well as support of cell growth and replication. Many of these functions involve the reduction of Trx, which may subsequently reduce a number of different substrates including ribonucleotide reductase, peroxiredoxins or NFkB. Mammalian TrxR itself also has a broad substrate specificity, reducing both protein and non-protein substrates, including low molecular weight compounds such as dehydroascorbate, lipoic acid, ubiquinone, and juglone. In addition, several drugs in clinical use for anticancer treatment are indeed known to target TrxR1.
This BioAssay is a validation of an NADPH fluorescence-based, dual-purpose qHTS rTrxR1 assay designed to find potential inhibitors and substrates of rTrxR1. For this particular BioAssay, actives are potential inhibitors. See related BioAssay for substrate data deposition.
NIH Molecular Libraries Probe Production Network [MLPCN]
NIH Chemical Genomics Center [NCGC]
Assay Provider: Elias Arner, Karolinska Institute
Assay protocol: 2 uL of reagents (buffer in column 4 as negative control and 90 nM rTrxR1 in columns 1-3 and 5-48) were dispensed into Greiner black solid-bottom 1,536-well assay plates, followed by 1 uL of NADPH (400 uM final concentration) to each well. The plates were centrifuged at 1000 rpm for 15 seconds and subsequently incubated for 5 min at room temperature (~22 deg C) to allow for rTrxR1 reduction. Compounds (23 nL) were then transferred via Kalypsys pin tool equipped with 1536-pin array (10 nL slotted pins, V&P Scientific, San Diego, CA). In addition, a duplicate 2-fold serial dilution of the control compounds auranofin, a known gold-based TrxR1 inhibitor, and juglone (5-hydroxy-1,4-naphthoquinone), a natural TrxR1 substrate, were pin-transferred to columns 2 and 3, respectively. After incubation for 15 min at room temperature (~22 deg C), 1 uL of selenite (400 uM final concentration) were dispensed to each well. The plate was immediately transferred to a ViewLux high-throughput CCD imager (PerkinElmer), wherein kinetic measurements of NADPH fluorescence (Ex 340 nm, Em 450 nm) were acquired (8 minute kinetic read, see Table 1). Read 1 was utilized to assess the capacity of a compound to serve as an rTrxR1 substrate, i.e. a decrease in NADPH fluorescence compared to the no-compound background is an indication of a substrate behavior for that particular compound. For inhibitory activity of a compound, delta values, computed as the difference in fluorescence intensity between the first and last reads of an 8-minute time kinetic window, were used. All reagents were diluted in an assay buffer consisting of 50 mM Tris-HCl, pH 7.5, 2 mM EDTA, and 0.01% Tween-20.
Throughout the screen, reagent bottle and all liquid lines were made light-tight to minimize reagent degradation. All screening operations were performed on a fully integrated robotic system (Kalypsys, San Diego, CA) containing one RX-130 and two RX-90 anthropomorphic robotic arms (Staubli, Duncan, SC). Library plates were screened starting from the lowest and proceeding to the highest concentration, and a 'double-pinning' step of the highest concentration was required to access higher concentrations of compounds. Vehicle-only plates, with DMSO being pin-transferred to the columns 5-48, were inserted uniformly at the beginning and the end of each library in order to monitor and record any shifts in the background, which can be affected by reagent dispensers or loss in enzyme activity over time. […]
% is set by controls: 0 for no effect and ±100 for the full control effect; potency is the fitted concentration of half-maximal effect; tags give direction and shape of the fitted curve.

SMILES	Potency	activity change, negative = inhibition
Cn1nnnc1Sc1ncnc2scc(-c3ccc(F)cc3)c12	inconclusive: 2 µM [inhibitor, full curve]	–
O=C(O)/C=C/c1ccc([N+](=O)[O-])o1	active: 10 µM	–
CN(C)c1ccc(C(c2nnnn2C(C)(C)C)N2CCN(C(=O)c3ccco3)CC2)cc1 (stereo not drawn)	inconclusive: 17.8 µM [inhibitor, partial curve]	–
COc1cc(/C=C/C(=O)c2cccc([N+](=O)[O-])c2)cc(OC)c1OC	inconclusive: 28.2 µM [inhibitor, single point]	–
CN(C)CC(C(=O)c1ccccc1)c1ccccc1 (stereo not drawn)	inconclusive: 56.2 µM [inhibitor, partial curve, poor fit]	–
COc1cccc(O)c1CN1CCCC(C(=O)c2cccc(C(F)(F)F)c2)C1 (stereo not drawn)	–	inactive: 11.1%
CCCC1Cc2[nH]c(=O)c(C#N)cc2CO1 (stereo not drawn)	inconclusive: 20 µM [inhibitor, partial curve, poor fit]	–
Cc1ccc(-n2nc(C)c(NC(=O)CCl)c2C)cc1	inconclusive: 44.7 µM [inhibitor, partial curve, poor fit]	–
O=C(Nc1cccc(C(=O)N2CCN(Cc3ccccc3)CC2)c1)c1ccccc1	inconclusive: 20 µM [inhibitor, partial curve, poor fit]	–
COc1ccc(C(C#N)N2N=C(C)CC2(C)C)cc1 (stereo not drawn)	inconclusive: 44.7 µM [inhibitor, single point]	–
COc1ccc(NC(=S)NC(=O)CC(C)C)c(OC)c1	–	inactive: -55.3%
CC1=NOC(=O)/C1=C/c1ccc(O)c(Cl)c1	inconclusive: 44.7 µM [inhibitor, partial curve]	–
CCOC(=O)C1C(c2cc(OC)c(O)c(OC)c2)NC(=S)NC1(O)C(F)(F)F (stereo not drawn)	inconclusive: 79.4 µM [inhibitor, partial curve, poor fit]	–
CC1CC2=C(NC(=S)NC2c2ccccc2F)/C(=C/c2ccccc2F)C1 (stereo not drawn)	–	inactive: -16.9%
COc1cc2[nH]c(=S)nc(NCc3ccc(C)cc3)c2cc1OC	–	inactive: -6.42%
C=CCCC(=O)Nc1nc(C)c(-c2csc(Nc3cccc(OC)c3)n2)s1	–	inactive: 25.6% [at 57.1 µM]
CSCCC(NC(=O)c1ccc(Cl)cc1Cl)C(=O)N1CCCCCCC1 (stereo not drawn)	–	inactive: 1.75%
CCc1ccc2[nH]c(=O)c(CN(CCCN3CCOCC3)C(=O)Nc3ccc(Cl)cc3)cc2c1	inconclusive: 56.2 µM [inhibitor, single point]	–
O=C(C1=C[C@H](c2ccc(Br)cc2)C[C@H](OCCCCO)O1)N1CCN(Cc2ccccc2)CC1	inconclusive: 89.1 µM [inhibitor, single point]	–
CCN(CC)C1=CC(=O)OC12CCCCC2	inconclusive: 79.4 µM [inhibitor, single point]	–
O=C(CCS(=O)(=O)c1ccccc1)Nc1nc2ccc(F)cc2s1	inconclusive: 79.4 µM [inhibitor, single point]	–
Cc1ccc(/C=C2/C(=O)ON=C2c2ccccc2)o1	active: 3.98 µM	–
Cc1ccc(N2C(=O)NC3(CCCCC3)C2=O)cc1	–	inactive: -13.3%

SMILES	Potency	activity change, negative = inhibition
CCN(CC)CCN(C(=O)CCS(=O)(=O)c1ccccc1)c1nc2cc3c(cc2s1)OCO3	active: 14.1 µM	–
COC(=O)c1ccc(NC(=S)Nc2ccc(O)cc2)cc1	inconclusive: 14.1 µM [inhibitor, partial curve, poor fit]	–
C/C(Cn1nnc2ccccc21)=N\OC(=O)c1ccccc1C	inconclusive: 89.1 µM [inhibitor, single point]	–
CN(C)c1ccc(/C=C/c2ccc3cc(F)ccc3n2)cc1	–	inactive: -1.92%
CCCn1nnc(NC(=S)NC(=O)C(C)(C)C)n1	–	inactive: -14.5% [at 57.1 µM]
CC(=O)OC(C[N+]1(C)CCCCCC1)c1ccccc1 (stereo not drawn)	–	inactive: 9.96%
O=C(CN(Cc1ccco1)C(=O)c1ccc([N+](=O)[O-])cc1)Nc1ccccc1C(F)(F)F	inconclusive: 31.6 µM [inhibitor, partial curve]	–
C/C(=N/NC(=O)c1ccoc1C)c1ccc(NC(=O)C2CCCC2)cc1	–	inactive: -10.2%
CC1CCN(C(=O)CSc2nnc(CNc3ccc(F)cc3)n2Cc2ccco2)CC1	inconclusive: 35.5 µM [inhibitor, single point]	–
COC/C=C/C1=CC2=CC(=O)C(C)(OC(=O)c3cnc4ccccc4n3)C(=O)C2=CN1Cc1ccco1 (stereo not drawn)	inconclusive: 28.2 µM [inhibitor, partial curve]	–
CCNc1nc(NCC)n2c(SC(C(=O)Nc3cc(Cl)cc(Cl)c3)c3ccccc3)nnc2n1 (stereo not drawn)	inconclusive: 50.1 µM [inhibitor, partial curve]	–
Clc1ccccc1CN1CCN(c2ncccn2)CC1	–	inactive: 8.22%
Cc1cc(=O)oc2ccc(OC(=O)CN3C(=O)c4cccc([N+](=O)[O-])c4C3=O)cc12	inconclusive: 50.1 µM [inhibitor, partial curve, poor fit]	–
CC(C)Cn1c(N)c(C(=O)COC(=O)c2cc(-c3ccco3)nc3ccccc23)c(=O)n(C)c1=O	active: 2.82 µM	–
O=C(NCC(=O)N(c1cccnc1)C(C(=O)NCc1ccco1)c1ccccc1)c1ccco1 (stereo not drawn)	inconclusive: 50.1 µM [inhibitor, partial curve, poor fit]	–
CN1CCCN(S(=O)(=O)c2ccc3c(c2)OCCO3)CC1	inconclusive: 44.7 µM [inhibitor, partial curve, poor fit] and inconclusive: 50.1 µM [inhibitor, partial curve, poor fit]	–
Cc1ccc(CN(C)C(=O)c2cc(COc3cccc(C(F)(F)F)c3)on2)o1	inconclusive: 15.8 µM [inhibitor, single point]	–
CC1=NN(c2ccc(C)cc2C)C(=O)C1C(c1cccc(O)c1)C1C(=O)N(c2ccc(C)cc2C)N=C1C (stereo not drawn)	inconclusive: 56.2 µM [inhibitor, partial curve, poor fit]	–
Cc1ccc(NC(=O)/C=C/c2ccc(C)o2)c(C)c1	active: 20 µM	–
C=CCN1CCN(C(c2ccc(OC)c(OC)c2)c2nnnn2C(C)(C)C)CC1 (stereo not drawn)	inconclusive: 89.1 µM [inhibitor, single point]	–
CCOC(=O)C1=CC[C@@H](c2ccco2)N(S(=O)(=O)c2ccc(C)cc2)[C@H]1C(=O)OCC	inconclusive: 56.2 µM [inhibitor, partial curve, poor fit]	–
O=C1CC(Sc2ncn[nH]2)C(=O)N1c1ccccc1 (stereo not drawn)	inconclusive: 10 µM [inhibitor, partial curve, poor fit]	–
CCN(C(=O)CN1CCCCCC1)c1c(N)n(Cc2ccccc2)c(=O)[nH]c1=O	–	inactive: -20.3% [at 11.4 µM]

SMILES	Potency	activity change, negative = inhibition
O=C(Cn1ncc2c(=O)oc3ccccc3c21)NC1CC1	inconclusive: 28.2 µM [inhibitor, single point]	–
CSc1ccc(Cl)c(C(=O)NCc2ccco2)c1	inconclusive: 28.2 µM [inhibitor, single point]	–
CCCCn1c(SCC(=O)NCCCOC)nc2c(sc3ccccc32)c1=O	–	inactive: 15.5% [at 0.457 µM]
COc1cccc(CNC(=O)C23CN(Cc4ccccc4)CC2C(c2ccc([N+](=O)[O-])cc2)=NO3)c1 (stereo not drawn)	–	inactive: -4.91%
Cc1cccc2cc(CN(C(=S)NCC(C)C)C3CCCC3)c(=O)[nH]c12	–	inactive: 0.921%
N#CC1=C(N)SC(N)=C(C#N)C1Cc1ccccc1	inconclusive: 56.2 µM [inhibitor, partial curve]	–
CCc1ccc(C(=O)c2cn(CC(=O)Nc3ccc(OC)c(OC)c3)c3ccc(C)cc3c2=O)cc1	–	inactive: 9.3%
O=[N+]([O-])c1ccc(/C=N/Nc2ccnc3cc(Cl)ccc23)o1	inconclusive: 44.7 µM [inhibitor, partial curve]	–
O=C(CSc1nc2cc(Cl)ccc2s1)NC(=O)NCc1ccco1	inconclusive: 89.1 µM [inhibitor, single point]	–
N=c1c(S(=O)(=O)c2ccccc2)cc2c(=O)n3ccccc3nc2n1Cc1ccco1	inconclusive: 70.8 µM [inhibitor, single point]	–
COc1cccc(-c2nnc(SCC(=O)NCc3ccc4c(c3)OCO4)n2Cc2ccco2)c1	inconclusive: 25.1 µM [inhibitor, partial curve, poor fit]	–
C[n+]1ccnc2cc(Cl)ccc21	inconclusive: 10 µM [inhibitor, full curve, poor fit]	–
CCc1c(C)sc(NC(=O)C2CC2c2ccccc2)c1C(N)=O (stereo not drawn)	inconclusive: 89.1 µM [inhibitor, single point]	–
C(=N\n1cnnc1SCc1ccccc1)/c1ccco1	inconclusive: 50.1 µM [inhibitor, partial curve, poor fit]	–
CC=C1COC(C(=O)NCCOCCO)(C(F)(F)F)C=C1C=C(C)C (stereo not drawn)	active: 3.55 µM	–
CCCC(=O)Nc1ccc(C(=O)N/N=C/c2ccc[nH]2)cc1	inconclusive: 70.8 µM [inhibitor, single point]	–
Cc1ccc(NC(=O)c2oc3ccccc3c2NC(=O)c2ccccc2C)cc1	inconclusive: 89.1 µM [inhibitor, single point]	–
CC1(C)CCCN(C(=O)c2coc(=O)c(Br)c2)C1	inconclusive: 89.1 µM [inhibitor, single point]	–
Cc1ccc(NC(=O)c2cc(S(=O)(=O)N3CCCC(C)C3)cn2C)c(Br)c1 (stereo not drawn)	–	inactive: -5.68% [at 57.1 µM]
COc1ccc(N2C(=O)CC(N3CCCC4CCCCC43)C2=O)cc1 (stereo not drawn)	inconclusive: 39.8 µM [inhibitor, single point]	–
Oc1cc(O)c2c(c1)O[C@H](c1ccc(O)c(O)c1)[C@H](O)C2	–	inactive: 2.61% [at 57.1 µM]
Nc1nc2ccc(OC(F)(F)F)cc2s1	inconclusive: 16.8 µM [inhibitor, single point]	–
